# Reference: paper PMC4336329 (PLoS ONE, 2015)
# Among all 310,000 compounds or so, about 2,200 (0.71%) showed an effect of 50% or more. The effect is printed as a negative number. The list shows a part of the results.
# Target: human ether-à-go-go-related gene (hERG) potassium channel (human, UniProt Q12809)
# Test: primary screen, population patch clamp on CHO cells stably expressing hERG
# Chain of human ether-à-go-go-related gene (hERG) potassium channel (Q12809 whole entry, looked up): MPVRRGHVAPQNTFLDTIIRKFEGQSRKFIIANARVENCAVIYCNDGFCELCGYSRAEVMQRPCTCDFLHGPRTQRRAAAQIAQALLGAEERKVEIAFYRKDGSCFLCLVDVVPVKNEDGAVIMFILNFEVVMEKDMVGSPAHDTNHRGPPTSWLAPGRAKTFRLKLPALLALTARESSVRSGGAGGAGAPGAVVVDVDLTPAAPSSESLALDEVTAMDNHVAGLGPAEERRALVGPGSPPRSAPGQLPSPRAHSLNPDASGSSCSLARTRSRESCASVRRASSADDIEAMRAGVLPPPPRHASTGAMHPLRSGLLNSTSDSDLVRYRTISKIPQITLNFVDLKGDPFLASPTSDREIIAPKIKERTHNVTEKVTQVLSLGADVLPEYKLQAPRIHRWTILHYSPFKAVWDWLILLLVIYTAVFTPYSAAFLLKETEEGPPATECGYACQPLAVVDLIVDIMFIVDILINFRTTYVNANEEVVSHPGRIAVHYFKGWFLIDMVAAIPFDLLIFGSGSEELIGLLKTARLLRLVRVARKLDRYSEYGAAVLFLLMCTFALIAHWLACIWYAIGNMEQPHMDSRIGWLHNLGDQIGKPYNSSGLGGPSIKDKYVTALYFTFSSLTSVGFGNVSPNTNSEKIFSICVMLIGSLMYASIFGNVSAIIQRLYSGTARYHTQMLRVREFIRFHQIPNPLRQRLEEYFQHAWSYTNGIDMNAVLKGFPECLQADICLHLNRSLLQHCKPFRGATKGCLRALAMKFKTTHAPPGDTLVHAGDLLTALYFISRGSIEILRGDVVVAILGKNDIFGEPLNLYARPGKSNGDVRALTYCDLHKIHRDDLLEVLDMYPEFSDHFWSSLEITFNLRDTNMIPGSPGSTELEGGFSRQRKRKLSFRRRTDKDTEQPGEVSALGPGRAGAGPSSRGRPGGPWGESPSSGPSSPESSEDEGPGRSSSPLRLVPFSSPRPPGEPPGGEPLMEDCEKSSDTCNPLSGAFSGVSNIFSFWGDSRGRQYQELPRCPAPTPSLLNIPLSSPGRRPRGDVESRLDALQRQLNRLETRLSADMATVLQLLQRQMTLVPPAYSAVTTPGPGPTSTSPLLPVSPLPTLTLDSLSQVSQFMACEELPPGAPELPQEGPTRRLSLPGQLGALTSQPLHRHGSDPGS
row,SMILES,"hERG current change (%, negative = inhibition) at 1uM [%]"
1,CC1CC(=O)Nc2ccccc2N1S(=O)(=O)c1cccs1 (stereo not drawn),6.21
2,N#C/C(=C\c1cccnc1)C(=O)Nc1ccc(Cl)cc1,8.91
3,Nc1ccc(S(=O)(=O)C(F)(F)F)cc1N,-1.04
4,COC(=O)c1sccc1NC(=O)CC1C(=O)NCCN1C(=O)Nc1cc(Cl)ccc1OC (stereo not drawn),5.03
5,O=C(C[n+]1cccc2ccccc21)c1ccccc1.[Br-],8.9
6,Clc1ccc(N2CCN(Cc3ccccc3Cl)CC2)cc1,8.18
7,CCCNS(=O)(=O)c1ccc2c(c1)n(C)c(=O)n2C,12.9
8,CCOC(=O)C1=C(O)C(Nc2nccs2)(C(F)(F)F)N=C1C (stereo not drawn),7.06
9,c1ccc(CSc2nnc(-c3c[nH]c4ccccc34)o2)cc1,12.7
10,CCC(=O)Nc1ccc2ccccc2c1,13.7
11,Cc1c(C)c2cc3c(C)coc3cc2oc1=O,12.9
12,Cc1ccc(-c2ccc(S(=O)(=O)NCc3ccco3)cc2)cc1,15.1
13,O=C(Nc1ccc2[nH]c(=O)[nH]c2c1)c1ccc([N+](=O)[O-])o1,10.6
14,COc1ccc(C2CC(c3ccc(Br)cc3)=NN2C(=S)Nc2ccccc2)cc1 (stereo not drawn),9.06
15,CCOC(=O)C1=C(C)C/C(=N\NC(=O)c2ccccc2O)CC1,12.1
16,Cn1nc(C(=O)OCc2ccc(F)cc2)c2ccccc2c1=O,12
17,O=C(c1cc(-c2cccnc2)nc2ccccc12)N1CCN(S(=O)(=O)c2cccs2)CC1,-11
18,O=[N+]([O-])c1cccc(-c2nnc3cccc(Cl)n23)c1,0.728
19,COc1cc(/C=N\n2cnnc2)ccc1OCC(=O)Nc1ccc(C)cc1,11.2
20,CCc1ccccc1NC(=O)c1ccc2c(c1)CCN2S(C)(=O)=O,14.6
21,CCOc1ccc(/C=N/NC(=O)c2csc(C)c2C)c(OCC)c1,9.93
22,CC1Sc2ccc(S(=O)(=O)CCC(=O)N(C)Cc3ccccc3)cc2NC1=O (stereo not drawn),11.3
23,COc1ccc(OC)c(NC(=O)N2CCc3ccccc3C2)c1,2.82

row,SMILES,"hERG current change (%, negative = inhibition) at 1uM [%]"
1,O=[N+]([O-])c1ccc(N=Nc2c(O)[nH]c3ccc(F)cc23)cc1,5.64
2,Cc1c(CCC(=O)N[C@@H](CCCNC(N)=O)C(=O)O)c(=O)oc2cc3oc4c(c3cc12)CCCC4,9.91
3,CN(C)/C=C(/C#N)C(=O)c1cccc(Oc2ccc(C(C)(C)C)cc2)c1,2.12
4,COc1ccc(S(=O)(=O)N(C)C)cc1NC(=O)COC(=O)c1nc2nccc(C)n2n1,6.92
5,O=C(COc1ccc2c(c1)OCO2)Nc1ccc(Cl)cn1,-0.549
6,CCc1cc(-c2ccc3c(c2)COc2c4ccccc4nn2-3)on1,6.44
7,COc1ccc(/C=C2\NC(=S)N(CC3CCCO3)C2=O)c(OC)c1 (stereo not drawn),7.77
8,NC(=S)NN=C1c2ccccc2-c2ccccc21,11.1
9,C[n+]1c2n(c3ccccc31)N=C(c1ccc(Br)cc1)CS2.[Br-],-53.1
10,O=C(NCC1CCOCC1)c1ccc(OC2CCN(Cc3ccccn3)CC2)cc1,13
11,COc1cccc(NC(=O)CCSc2ccc(C)cc2)c1,13.3
12,COc1cccc(NC(=O)C2CCCN2C(=O)OCc2ccccc2)c1 (stereo not drawn),1.69
13,CCOc1cc(/C=C/c2ccc3cccc([N+](=O)[O-])c3n2)ccc1O,13.2
14,CN(C)CCCN1C(=O)c2cc3ccccc3cc2C1=O,6.68
15,N#C/C(=N\Nc1cccc2ccccc12)c1nnc2n1CCCCC2,2.59
16,Cc1cccnc1NC(=O)Nc1cccs1,11.5
17,NNC(=O)c1cc2c(s1)CCCCCC2,19.2
18,Clc1ccc(CN2CCSCC2)c(Cl)c1,12
19,CC(NCc1ccccc1O)c1ccccc1 (stereo not drawn),20.2
20,COc1ccc2oc(=O)c(C(=O)NCC3CCCO3)cc2c1 (stereo not drawn),9.45
21,Cc1occc1-c1nnc(SCC(=O)Nc2ccccc2N2CCCCC2)n1C,-7.41
22,CCC(C)NC(=O)C1CCN(S(=O)(=O)c2ccc3nc4c(c(C(=O)O)c3c2)CCCCC4)CC1 (stereo not drawn),6.54
23,CC(=O)Oc1ccc(C(=O)Nc2cccc(C(=O)Nc3ccccc3C(=O)O)c2)cc1,13.7

row,SMILES,"hERG current change (%, negative = inhibition) at 1uM [%]"
1,COC(=O)c1ccc(NC(=O)CCCCCn2nnc3ccccc3c2=O)cc1,5
2,COc1ccc(CN(Cc2ccncc2)C(=O)CCC(=O)O)cc1,-3.83
3,COc1ccc(C(=O)/C=C2\NCCc3cc(OC)c(OC)cc32)cc1OC,11.5
4,COCCCNC(=O)CN(Cc1ccc(Cl)cc1)S(C)(=O)=O,13.8
5,CCOc1ccc(C(CC(=O)O)NC(=O)CCCOc2ccc(Cl)cc2C)cc1 (stereo not drawn),1.25
6,O=C(Cc1ccc(O)cc1)N/N=C/c1cccnc1,10.2
7,CCN(CC)S(=O)(=O)c1cc([N+](=O)[O-])ccc1N=Nc1c(O)n(C)c2ccccc12,5.63
8,COCC(=O)N(CCc1ccccc1)Cc1cc2cc(C)ccc2nc1Cl,0.27
9,CCc1nnc(SCCSc2nnc(CC)n2N)n1N,8.58
10,CCN(CC(=O)Nc1cccc(C(C)=O)c1)S(=O)(=O)c1ccc(C)cc1,7.92
11,COCCN1CC(C(=O)NCc2ccccc2-n2ccnc2C)CCC1=O (stereo not drawn),9.1
12,Cc1ccccc1Nc1nnc(-c2ccc(C(=O)NCCO)cc2)c2ccccc12,1.93
13,COC(=O)c1ccc(N2CCN(C)CC2)c(NC(=O)c2cc3ccccc3o2)c1,0.985
14,C=CCNC(=O)c1cc(Cl)cc(Cl)c1,11.6
15,COc1cccc(NCc2cc(=O)oc3cc(C)c(O)cc23)c1,16.1
16,O=C(O)c1c(-c2ccccc2)c(-c2ccccc2)nc2ccccc12,11.1
17,Cc1cc(C(=O)NNC(=O)NC(C)C)no1,14
18,O=C(CC12CC3CC(CC(Br)(C3)C1)C2)Nc1cccc(S(=O)(=O)NC2=NCCC2)c1,3.49
19,COc1ccc(Nc2cc(C)c3c(O)cccc3n2)cc1,3.95
20,Clc1ccc(SCCOCCN2CCOCC2)cc1.O=C(O)C(=O)O,11.2
21,Cc1cccc(N2C(=O)C(O)=C(C(=O)c3cccs3)C2c2cccc(Oc3ccccc3)c2)n1 (stereo not drawn),10.3
22,COc1ccc(Cl)cc1C(=O)N1CCN(c2ccccn2)CC1,8.48
23,CC(=O)c1cnc2sccn2c1=O,0.254

row,SMILES,"hERG current change (%, negative = inhibition) at 1uM [%]"
1,O=c1ccccn1Cc1ccccc1F,8.81
2,CCOC(=O)CSc1nc2sc3c(c2c(=O)n1-c1ccc(OC)cc1)CCN(C)C3,10.9
3,CCCn1cc(CN2CCCC(C(=O)c3cccc(OC(C)C)c3)C2)c(C)n1 (stereo not drawn),-1.01
4,S=C1Nc2ccccc2Sc2ccc(Cl)cc21,-2.69
5,Nc1c2c(nc3ccc(Br)cc13)N(C1CCCCC1)CC2.O=C(O)C(=O)O,-32.3
6,Cc1ccc(C(C(=O)NCc2ccccc2)N(C(=O)c2csnn2)C2CC2)cc1 (stereo not drawn),8.21
7,Cc1ccc(-c2csc3nc(C(C)C)oc(=O)c23)c(C)c1,13.5
8,COC(=O)c1ccc(C(=O)OC)c(NC(=O)CN(C)Cc2ccc(Cl)c(Cl)c2)c1,15.9
9,O=C(CSc1nc2ccccc2c(=O)[nH]1)N1CCN(c2ccccc2)CC1,12.9
10,CC1CCCCC12NC(=O)N(CC(=O)NCC(=O)Nc1ccc(F)c(F)c1F)C2=O (stereo not drawn),16
11,COc1ccccc1-n1c(SCC(=O)NC2CCS(=O)(=O)C2)nc2cc([N+](=O)[O-])ccc21 (stereo not drawn),6.29
12,CC(=O)c1ccc(NC(=O)c2ccc(N3C(=O)c4cccnc4C3=O)cc2)cc1,17.5
13,Cc1cc(C)c(S(=O)(=O)c2cccc(Br)c2C)c(=O)[nH]1,16.1
14,O=C(CC(c1cccs1)S(=O)(=O)c1ccccc1)c1ccc(F)cc1 (stereo not drawn),14.5
15,O=C(NCCN1CCN(c2cccc(Cl)c2)CC1)C1CCCN(S(=O)(=O)c2cnc[nH]2)C1 (stereo not drawn),1.46
16,COc1ccc(C2N=C(N)N=C(N)N2c2ccccc2)cc1OC.Cl (stereo not drawn),9.48
17,COCCn1c(-c2ccccc2)nc2oc3cc(OC)ccc3c(=O)c2c1=O,6.17
18,CN(C)C(CNC(=O)c1ccc(S(=O)(=O)Nc2ccccc2F)cc1)c1ccco1 (stereo not drawn),3.41
19,CC(C)c1ccc(/C=C/C(=O)NCCCc2ccccc2)cc1,4.82
20,COc1ccc(/C=C2\SC(=S)N(CCC(=O)NC3CCCC3)C2=O)cc1OC,2.91
21,CCn1cnc2c1c(=O)n(CC(=O)NCc1ccccc1)c(=O)n2Cc1ccccc1,11.8
